Test results taken from PubChem BioAssay AID2147 (National Center for Advancing Translational Sciences (NCATS), 2009).
Several values for one entry are separate records, joined by “and”; a condition that tells them apart may be missing. Equal values may be shown once. About 3,600 (1.6%) of roughly 230,000 compounds were called active. The shares of active, inactive and inconclusive entries below differ from those in the screen. The call rests on the fitted dose curve; in most records, active means well fitted inhibition curve with a large enough effect (not every such curve was filed as active); inconclusive means small, poorly fitted or top-dose-only effect, or another doubt; inactive means no such curve, though single readings can be large or run the other way. Potencies of inconclusive entries are doubtful fits and often do not repeat.

Each molecule was assayed against Lysine-specific demethylase 4E (Homo sapiens) (UniProt B2RXH2) (assay: qHTS Assay for Inhibitors of Human Jumonji Domain Containing 2E (JMJD2E)). Conditions: JMJD2E catalytic domain, FDH-coupled NADH fluorescence (FDH is formaldehyde dehydrogenase); series mostly up to 57.1 µM.
Further: nearly all actives have a fitted effect of over 50% in size.
Potency means the concentration at half of the fitted maximal effect; tags describe the fitted curve by direction and shape.

Sequence of UniProt B2RXH2 (B2RXH2 whole entry, looked up, the tested form may be a part): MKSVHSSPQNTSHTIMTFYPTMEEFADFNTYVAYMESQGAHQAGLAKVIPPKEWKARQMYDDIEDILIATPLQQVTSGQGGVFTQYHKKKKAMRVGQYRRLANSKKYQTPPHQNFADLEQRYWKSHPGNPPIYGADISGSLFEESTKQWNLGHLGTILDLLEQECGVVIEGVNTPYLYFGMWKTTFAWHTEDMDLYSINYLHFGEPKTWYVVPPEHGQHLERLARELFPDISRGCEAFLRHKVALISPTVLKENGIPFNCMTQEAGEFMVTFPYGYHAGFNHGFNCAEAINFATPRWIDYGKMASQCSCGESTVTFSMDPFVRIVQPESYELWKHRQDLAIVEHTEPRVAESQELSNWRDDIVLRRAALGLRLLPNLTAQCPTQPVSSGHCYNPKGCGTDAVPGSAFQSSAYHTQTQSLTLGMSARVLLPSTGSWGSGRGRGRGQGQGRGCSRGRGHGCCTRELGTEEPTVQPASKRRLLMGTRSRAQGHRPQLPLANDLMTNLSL

| Structure (SMILES) | Potency |
| --- | --- |
| O=C(NC(=S)NCCC1=CCCCC1)c1ccccc1Br | inactive |
| Cc1ccc(S(=O)(=O)N2CCCC2C(=O)OCc2ccco2)cc1 (stereo not given) | inconclusive: 39.8 µM [inhibitor, single point] |
| CCn1cc(C(=O)O)c(=O)c2cc(F)c(N3CCNC(C)C3)c(F)c21 (stereo not given) | inconclusive: 28.2 µM [inhibitor, partial curve] and inconclusive: 31.6 µM [inhibitor, partial curve] |
| Cc1ccc(C(=O)NCC(=O)NCC(=O)OCC(=O)c2ccc([N+](=O)[O-])cc2)cc1 | inactive |
| COc1ncnc2c1sc1nc(-c3ccccc3)c3c(c12)CCCC3 | inactive |
| CN1CCN(NC(=O)c2ccc(Cl)s2)CC1 | inactive |
| Clc1ccc(-n2ncc3c(NCCCn4ccnc4)ncnc32)cc1 | inconclusive: 35.5 µM [inhibitor, single point] |
| Nc1ccc(C(=O)Nc2ccc(OC(F)(F)C(F)F)c(NC(=O)c3ccc(N)cc3)c2)cc1 | inconclusive: 35.5 µM [inhibitor, single point] |
| CCOC(=O)C1=C(C)NC(=S)NC1c1ccc(-c2cccc(Cl)c2C)o1 (stereo not given) | inactive |
| CC(C)Cn1c(SCC(=O)Nc2cccc(S(N)(=O)=O)c2)nc2ccccc2c1=O | inconclusive: 39.8 µM [inhibitor, single point] |
| CCCn1c(=S)[nH]c2ccc(C(F)(F)F)cc21 | inconclusive: 39.8 µM [inhibitor, single point] |
| Cc1ccc(NS(=O)(=O)c2ccc(Cl)c(NC(=S)NC(=O)C3CCCCC3)c2)cc1Cl | inactive |
| Cc1ccc(CNC(=O)C2CCN(S(=O)(=O)c3cccs3)CC2)o1 | inconclusive: 20 µM [inhibitor, single point] |
| O=C(O)CCn1c(SCc2cc(=O)n3ccccc3n2)nc2ccsc2c1=O | inconclusive: 28.2 µM [inhibitor, partial curve] |
| Cc1ccc2nc(-c3cccc(N)c3)[nH]c2c1 | inconclusive: 28.2 µM [inhibitor, partial curve] |
| O=C(O)CC1(CC(=O)Nc2ccc3ccccc3n2)CCCCC1 | inactive |
| N=c1c2c(-c3ccccc3)c(-c3ccccc3)n(Cc3ccccc3)c2ncn1CCCn1ccnc1 | inactive |
| COc1cccc(-c2ccc(C#N)c(SCC(=O)NCCc3ccccc3)n2)c1 | inconclusive: 12.6 µM [inhibitor, partial curve] |
| O=C(Nc1nc(-c2ccc3ccccc3c2)cs1)c1ccc(N2C(=O)CCC2=O)cc1 | inconclusive: 35.5 µM [inhibitor, single point] |
| O=C(O)c1cnc2[nH]c3ccccc3n2c1=O | inconclusive: 25.1 µM [inhibitor, partial curve] |
| NC(=O)c1c(C(F)(F)F)cc(-c2ccccc2)nc1NCCO | inconclusive: 35.5 µM [inhibitor, partial curve] |
| CCOC(=O)c1ccc2c(c1)nc(SCC(=O)c1ccco1)n2CC | inactive |
| COc1ccccc1C(C)N(C)Cc1nc(COc2ccccc2)no1 (stereo not given) | inconclusive: 35.5 µM [inhibitor, partial curve] |
| Cc1ccc(C)c(OCC(=O)Nc2ccc(S(=O)(=O)Nc3ccccn3)cc2)c1 | inconclusive: 35.5 µM [inhibitor, single point] |

| Structure (SMILES) | Potency |
| --- | --- |
| CC1CN(C(=O)c2cnn3c(C(F)F)cc(-c4ccccc4)nc23)CC(C)O1 (stereo not given) | inconclusive: 28.2 µM [inhibitor, single point] |
| O=C(Nc1cnn(Cc2ccc(F)cc2)c1)c1cc(-c2cccs2)on1 | inconclusive: 28.2 µM [inhibitor, partial curve] |
| O=C(CCl)Nc1cn(-c2ccccc2)nc1-c1ccc(F)cc1 | inconclusive: 35.5 µM [inhibitor, single point] |
| CCCCCNc1nc2ccccc2nc1NS(=O)(=O)c1cccs1 | inconclusive: 3.98 µM [inhibitor, full curve] |
| CCC1(CC)N([O-])C(C)=C(c2ccccc2)[N+]1=O | inactive |
| C/C=C(/C)C(=O)OC(C)(C)[C@@H]1Cc2c(ccc3ccc(=O)oc23)O1 | inconclusive: 31.6 µM [inhibitor, partial curve] |
| COc1cccc(C2C3=C(CC(C)(C)CC3=O)Nc3n[nH]c(C)c32)c1 (stereo not given) | inconclusive: 28.2 µM [inhibitor, partial curve] |
| CCCCCCNC(=O)N[C@H](C(=O)NCCC[C@H]1CN2C(=NC[C@H]2C)N1CCC(c1ccccc1)c1ccccc1)C(C)O (stereo not given in full) | active: 20 µM |
| CCCC(=O)Nn1cnc2c(c1=O)C1(CCCCC1)Cc1ccccc1-2 | inactive |
| O=C(CN1CCN(Cc2ccccc2F)C1=O)NCc1ccco1 | inactive |
| O=C(CCOc1ccccc1)Nc1nnc(-c2ccc3c(c2)OCCO3)o1 | inconclusive: 35.5 µM [inhibitor, single point] |
| Cc1ccc(C(=O)O)cc1NC(=S)NC(=O)Cc1ccccc1 | inactive |
| Nc1nc(N2CCN(C(=O)c3ccco3)CC2)nc2ccc(Br)cc12 | inconclusive: 35.5 µM [inhibitor, partial curve] |
| COc1ccc(-c2ccc(-c3noc(C(C)C)n3)c(OC)n2)cc1 | inconclusive: 31.6 µM [inhibitor, partial curve] |
| CCOC(=O)C1CCN(S(=O)(=O)c2cccc(-c3cn4ccccc4n3)c2)CC1 | inconclusive: 39.8 µM [inhibitor, single point] |
| C=CCn1c(=NC(=O)c2cccs2)sc2cccc(OC)c21 | inconclusive: 35.5 µM [inhibitor, partial curve] |
| CCOC(=O)CSC1=C(C#N)C(=O)NC(c2ccc(OC)cc2)S1 (stereo not given) | inconclusive: 35.5 µM [inhibitor, single point] |
| O=C(O)CCc1ccc(-c2ccc(Cl)cc2)o1 | inconclusive: 39.8 µM [inhibitor, single point] |
| COc1ccc2c(c1)c(=O)cc(-c1ccccc1)n2C | inconclusive: 28.2 µM [inhibitor, single point] |
| CCc1nc(SCC(=O)N2CCN(C(=O)c3ccco3)CC2)c2c3c(sc2n1)CCCC3 | inactive |
| COc1ccc(N(C)C(=O)c2cc3c(s2)-c2c(C)cccc2OC3)c(OC)c1 | inconclusive: 39.8 µM [inhibitor, single point] |
| O=c1ccc2c(OCCCCc3ccccc3)c3ccoc3cc2o1 | inconclusive: 35.5 µM [inhibitor, single point] |
| Clc1ccccc1-c1nc2nc3ccccc3nc2n1-c1ccc2c(c1)OCO2 | inconclusive: 35.5 µM [inhibitor, single point] |
| Cc1ccc(Cc2cnc(NC(=O)c3ccco3)s2)cc1 | inconclusive: 39.8 µM [inhibitor, single point] |

| Structure (SMILES) | Potency |
| --- | --- |
| CCOc1cc(/C=C2/SC(=S)N(CC3CCCO3)C2=O)ccc1O (stereo not given) | inconclusive: 28.2 µM [inhibitor, single point] |
| CCn1nc(C)c(CNC(=O)Nc2ccccc2C(=O)OC)c1C | inconclusive: 3.98 µM [inhibitor, partial curve] |
| COc1ccc(OC)c(-n2c(N)c(C(=O)NCC3CCCO3)c3nc4ccccc4nc32)c1 (stereo not given) | inconclusive: 25.1 µM [inhibitor, partial curve] |
| NCC(O)c1ccc(O)c(O)c1 (stereo not given) | active: 12.6 µM |
| O=C(C1CCCO1)N1CCN(c2ncccn2)CC1 (stereo not given) | inconclusive: 20 µM [inhibitor, partial curve] |
| COCCCn1c2nc3ccccc3nc2c2c(=O)n(Cc3ccc(Cl)cc3)c(C)nc21 | inconclusive: 3.55 µM [inhibitor, full curve] |
| Cc1ccccc1CSc1nnc2ccc(-c3ccncc3)nn12 | inactive |
| Cc1nc(NC(C)c2ccccc2)c2oc3ccccc3c2n1 (stereo not given) | inconclusive: 35.5 µM [inhibitor, single point] |
| Cc1ccn2c(NC3CCCC3)c(-c3cccs3)nc2c1 | inconclusive: 28.2 µM [inhibitor, partial curve] |
| Cc1coc2cc3oc(=O)c(CCC(=O)O)c(C)c3cc12 | inconclusive: 0.631 µM [inhibitor, partial curve] |
| Cc1ccccc1Nc1c(-c2ccc(N3CCOCC3)cc2)nc2cnccn12 | inconclusive: 31.6 µM [inhibitor, single point] |
| COc1ccc(C(C[N+](=O)[O-])c2c(C)cc3ccccn23)cc1 (stereo not given) | inconclusive: 20 µM [inhibitor, single point] |
| N#CCCn1cc(/C=N/NC(=O)c2ccncc2)c(-c2ccccc2)n1 | inactive |
| CCOC(=O)CN(c1ccccn1)S(=O)(=O)c1ccccc1 | inconclusive: 31.6 µM [inhibitor, partial curve] |
| Cc1ccc(Cn2c3ccccc3c3cn[nH]c(=O)c32)cc1 | inconclusive: 17.8 µM [inhibitor, partial curve] |
| C/C(=N/NC(=O)c1ccncc1)c1cc2ccc(O)cc2oc1=O | inconclusive: 31.6 µM [inhibitor, partial curve] |
| N#Cc1c(-c2ccco2)cc(-c2ccccc2)[nH]c1=O | inconclusive: 28.2 µM [inhibitor, partial curve] |
| COc1ccc(NS(=O)(=O)c2cc(S(C)(=O)=O)ccc2C)cc1 | inactive |
| C/C(=N\Nc1nc2ccccc2s1)c1cccs1 | inactive |
| O=C(N[C@H]1CCCc2ccccc21)O[C@@H]1C(=O)c2cc(Br)ccc2O[C@H]1c1ccc2c(c1)OCO2 | inactive |
| Cc1ccc(S(=O)(=O)/N=C2/NC(=O)/C(=C/c3ccccc3)S2)cc1 | inconclusive: 39.8 µM [inhibitor, single point] |
| C/C(=N/NC(=O)CSc1nc2ccccc2n1C)c1ccncc1 | inactive |
